# Experimental data taken from publication PMC12040169 (PLOS Biology, 2025).
# Some of the results follow.
# System: T1, C. trachomatis L2/434/Bu expressing GFP (CTL2-GFP)
# T1 construct: L2/434/Bu GFP intracellular growth in HeLa cells
# Set-up: species or system HeLa; C. trachomatis total inclusion area by high-content imaging, normalised to DMSO
# Settings: total inclusion area; 28.5 h, 10 µM; inhibitor
# Method in brief: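 Following bulk GFP and resorufin fluorescence reads, infected cells were fixed, Hoechst-stained and imaged on a high-content platform. Inclusion total area and number per well served as growth proxies; nuclei counts indicated host viability. MICs were derived as for the fluorescence assay.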
row,Structure (SMILES),% of control remaining
1,Cc1cc(-c2c(C)n(-c3ccccc3)[nH]c2=O)n2ncnc2n1 [CBK288441],85.311
2,Cc1nc(C(=O)NC2CC(=O)N(CCc3ccc(F)cc3)C2)cs1 (stereo not shown) [CBK307473],66.4711
3,O=C(O)Cn1nc(-c2ccccc2)c2ccccc2c1=O [CBK287249],85.6639
4,Cc1nc(N2CCCCC2)ncc1C(=O)NCCSc1nncn1C [CBK306955],52.8564
5,Cc1ccc(C)c(S(=O)(=O)NCC(=O)Nc2nsc(-c3ccccc3)n2)c1 [CBK267304],100.818
6,O=C(NCCCO)c1cc2ccccc2[nH]1 [CBK267638],106.241
7,COc1ccc(CCNC(=O)CC2Sc3ccc(C(F)(F)F)cc3NC2=O)cc1OC (stereo not shown) [CBK265341],86.3989
8,CCc1ccc(-c2cnccc2-n2ccnc2)cc1 [CBK177151],57.5674
9,O=S(=O)(c1ccc(NC(=S)NCc2cccnc2)cc1)N1CCOCC1 [CBK268396],84.0127
10,CC(=O)N(C)c1nc(-c2cccc(N(C)C)c2)ccc1C(=O)NCCc1ccc(S(N)(=O)=O)cc1 [CBK076578],88.7689
11,CN(C)CCNc1ncnc2sc3c(c12)CCC3 [CBK265347],98.5514
12,O=C(C1=C(O)C(=O)N(CCCn2ccnc2)C1c1cccs1)c1ccc2c(c1)OCCO2 (stereo not shown) [CBK266170],110.096
13,CSc1ccc(NS(=O)(=O)c2ccc(NC(C)=O)c(Cl)c2)cc1 [CBK043566],66.2398
14,COc1ccc(CC(=O)N2CCC[C@@H](N)[C@@H]2c2ccccc2F)cc1 [CBK283456],75.4046
15,COc1ccc(C(NC(=O)c2cccc(OC)c2)c2cc(Cl)c3cccnc3c2O)cc1 (stereo not shown) [CBK264027],108.038
16,COCC(=O)N1CC[C@H](c2nnc(-c3ccncc3)o2)C1 [CBK289413],89.0879
17,Cc1nc2c(c(C)c1CC(=O)NCc1cccc(C#N)c1)c(=O)[nH]n2C [CBK304959],48.9208
18,CC(C)C[C@H](NC(=O)OC(C)(C)C)C(=O)N1CCC(C(=O)O)CC1 [CBK286742],59.2626
19,COc1ccc(C(=O)CCC(=O)Nc2cccnc2)c(OC)c1 [CBK266923],88.9359
20,O=[N+]([O-])c1ccccc1N/N=C/c1c[nH]c2ccccc12 [CBK261679],106.8
21,O=C(Nc1ccccc1N1CCCNCC1)c1ccnc2ccccc12 [CBK036325T],89.7494
22,CSc1nsc(SCC(=O)N(c2ccccc2)c2ccccc2)n1 [CBK269361],112.563
23,CS(=O)(=O)N(CC(=O)N1CCN(Cc2ccc3c(c2)OCO3)CC1)c1cccc(F)c1 [CBK074572],82.6342
24,COc1cc(OC)cc(C(=O)Nc2ncccc2OCCCC#N)c1 [CBK304899],34.0567
25,COc1ccc2oc(-c3ccc(NC(=O)c4cccc5ccccc45)cc3)nc2c1 [CBK267610],96.1077
26,O=C(O)c1ccc(NC(=O)c2cc(-n3cnnc3)ccc2Cl)cc1 [CBK286613],69.3923

row,Structure (SMILES),% of control remaining
1,CC1Cc2ccccc2N1C(=O)Cn1c(=O)n(C)c2ncccc21 (stereo not shown) [CBK283793],101.29
2,Cc1ccc(C2NS(=O)(=O)NC2=N)cc1 (stereo not shown) [CBK263848],87.0137
3,COc1cc(-c2nnc(NC(=O)c3ccc(C)cc3)o2)cc(OC)c1OC [CBK287699],83.1042
4,O=c1[nH]cc(S(=O)(=O)N2CCN(Cc3ccccc3Cl)CC2)c(=O)[nH]1 [CBK285889],113.932
5,O=C(COc1cccc2ccccc12)Nc1cccnc1 [CBK263015],91.358
6,O=C(CSCc1ccc(Cl)cc1)Nc1ccc(S(=O)(=O)N2CCCCCC2)cc1 [CBK267017],44.8319
7,CC(C)C(=O)Nc1ccc(Oc2ccc(C(=O)O)c(C(=O)O)c2)cc1 [CBK263463],102.615
8,O=C(CSCc1cccc2ccccc12)Nc1c[nH]c(=O)[nH]c1=O [CBK268500],122.083
9,O=C(Nc1cccc2ccccc12)N1CCC(n2c(=O)[nH]c3ccccc32)CC1 [CBK149858],98.4511
10,CCCC(=O)Nc1sc(C)c(C)c1C(=O)Nc1ccccc1OC [CBK262455],72.1396
11,CC(=O)Nc1nc2ccc(S(=O)(=O)N3CCCC3)cc2s1 [CBK287604],87.1957
12,[O-][S+]1c2ccccc2Oc2ccccc21 [CBK027634],90.2544
13,O=c1oc2ccccc2c(NCCN2CCCCC2)c1[N+](=O)[O-] [CBK218805],82.6899
14,CCNc1cc(-c2ccc(OC)cc2)ncn1 [CBK090883],91.5841
15,Cc1cc(C)cc(N(CCC#N)C(=O)CSc2nnc[nH]2)c1 [CBK296955],50.2156
16,Cn1cc(CN2CCCN(C(=O)c3cc4ccccc4[nH]3)CC2)cn1 [CBK304920],15.1338
17,COc1ccc(C2C(C(C)=O)=C(O)C(=O)N2CCC(=O)O)cc1 (stereo not shown) [CBK263763],99.9938
18,Cc1cc(C)n(-c2nc3cc(Cl)ccc3nc2Nc2ccc3c(c2)OCO3)n1 [CBK268380],105.951
19,O=C(NC1CCNCC1)c1cc2ccccc2[nH]1 [CBK168609],67.4144
20,OCCn1ncc2c(NCc3cccc(Cn4ccnc4)c3)ncnc21 [CBK304184],31.8073
21,O=C(CSc1ncccn1)N/N=C/c1ccncc1 [CBK262401],97.5876
22,COc1ccc([C@@H](O)[C@H]2CCCNC2)cc1 [CBK282298],93.2626
23,CC(C)Cn1c(=O)c2c(nc3n2CCS3)n(C)c1=O [CBK307109],66.0739
24,COCc1nnc(Sc2nccnc2NC(C)C)s1 [CBK115204],81.4381
25,O[C@H]1[C@H](NCc2ccccn2)[C@H]2CO[C@H](O2)[C@@H]1N1CCC(Cc2ccccc2)CC1 [CBK288814],102.877
26,COC(=O)c1ccc(OCCn2nc(C)c(C)c(C#N)c2=O)cc1 [CBK305676],120.557
